# Laboratory results: paper PMC10668032
# The other results are listed elsewhere or left out. At the low end of the ranking the order means little.
# Biological target: SIX1 homeodomain (reference allele) (UniProt Q15475)
# Test: universal protein binding microarray
# Conditions: Universal all-10-mer PBM (8x60K, AMADID 030236), 300 nM GST-tagged protein, Alexa Fluor 488 anti-GST; buffer, salt, pH and temperature not stated; high values mean tight binding; most listed sequences are background and not binding sites; double strand, one strand shown
row,Sequence,binding signal
1,AGGCTTAG,0.00232 E-score
2,CTCAACAA,-0.0589 E-score
3,GGTCGGGA,0.117 E-score
4,ATAGCCGG,0.225 E-score
5,CCCGGTAC,0.0492 E-score
6,GTTGGGGA,0.126 E-score
7,CTACCGAG,-0.061 E-score
8,ACCCCACT,0.13 E-score
9,TACGTTCA,-0.0582 E-score
10,CTGTCGAA,-0.195 E-score
11,GTTGTTCA,-0.195 E-score
12,AGGAGAGA,-0.046 E-score
13,ACTGTTCT,-0.0581 E-score
14,ATATCACG,0.456 E-score
15,CGCAATAA,0.066 E-score
16,GTATTGCA,0.169 E-score
17,ACCGCTTG,-0.0884 E-score
18,AGATAAAC,0.0448 E-score
19,CTCCACAG,0.0465 E-score
20,CCTCGCGC,-0.155 E-score
21,GAGGGGCA,-0.019 E-score
22,ATCTCGAG,0.215 E-score
23,CAGCCGGC,-0.181 E-score
24,CACTGCGA,-0.116 E-score
25,AACGCATT,-0.124 E-score

row,Sequence,binding signal
1,CTGAAGTA,-0.114 E-score
2,CTCACTAA,-0.0391 E-score
3,AGAGGGTC,-0.15 E-score
4,AACCCAAG,-0.00344 E-score
5,CAAACGAC,-0.0305 E-score
6,AGAGGTTG,-0.212 E-score
7,CGCCACTC,-0.129 E-score
8,GACATGAC,-0.117 E-score
9,AACCGAGT,-0.0956 E-score
10,AAAGAATT,-0.199 E-score
11,GGGGCCAC,-0.0409 E-score
12,CCATAGTA,-0.0398 E-score
13,AGCTACTA,0.0284 E-score
14,ACAAGCCC,-0.19 E-score
15,GAGACTTA,-0.0722 E-score
16,AGGAGCGG,-0.103 E-score
17,CTTTAGAA,-0.0545 E-score
18,CTATGTAA,0.00293 E-score
19,CCACACGG,0.00752 E-score
20,AATCGGCC,-0.129 E-score
21,AAGTACAC,-0.0203 E-score
22,GAGCATGC,-0.00805 E-score
23,TACTGGAA,-0.0176 E-score
24,GGACCGCA,-0.0773 E-score
25,CGAACCGC,0.0458 E-score

row,Sequence,binding signal
1,GAGAAATC,-0.105 E-score
2,ACACACGG,0.0263 E-score
3,AATAATTG,-0.134 E-score
4,CTTAGTGC,-0.126 E-score
5,CTAGTCTA,-0.142 E-score
6,CGCCCTAC,-0.152 E-score
7,GCACATCA,-0.0753 E-score
8,CCGTGAAC,-0.182 E-score
9,ATCAGTAG,0.209 E-score
10,CCTTGACG,-0.144 E-score
11,AGATTGCA,-0.0909 E-score
12,CAGGAAGA,0.0107 E-score
13,AGCCGAGG,-0.0191 E-score
14,CCAGTCCA,-0.141 E-score
15,AATACGAA,0.0999 E-score
16,ATACGACC,0.309 E-score
17,CAAACCAC,-0.0772 E-score
18,TGTGGGAA,-0.151 E-score
19,AAGATAGT,0.105 E-score
20,CGGAGTCA,0.0749 E-score
21,AGCATCTA,0.0792 E-score
22,AGGGTAGG,0.0483 E-score
23,CTCATAAC,0.0601 E-score
24,ACATCCGG,0.174 E-score
25,GATTAAGC,0.0202 E-score

row,Sequence,binding signal
1,CCTCCACA,-0.0816 E-score
2,ACCCCGGC,0.109 E-score
3,GCATATTA,0.249 E-score
4,AGAGCCGA,0.0149 E-score
5,ATGCCGAG,-0.136 E-score
6,ACGGTTTG,-0.0969 E-score
7,CGCCAGAC,0.00184 E-score
8,ACCGTACG,-0.118 E-score
9,AACACTAG,0.0262 E-score
10,GCAACTCC,-0.0982 E-score
11,CGAACCAA,-0.169 E-score
12,CAAAGGCG,-0.0566 E-score
13,GTGCGAGA,-0.0214 E-score
14,AAAACGGA,-0.0442 E-score
15,ATCTACAG,0.152 E-score
16,CGATTGAC,-0.278 E-score
17,ACAAAGCT,-0.122 E-score
18,TGGCCAAA,-0.238 E-score
19,TACGAATA,0.118 E-score
20,AAAAACAG,-0.295 E-score
21,ATTTACCG,0.0707 E-score
22,CTTACGGA,0.0257 E-score
23,CACTCAAC,-0.0863 E-score
24,CGGACTGA,-0.226 E-score
25,GATACTAA,0.362 E-score

row,Sequence,binding signal
1,CCAGTGGA,-0.075 E-score
2,GCTGTCAC,0.0479 E-score
3,AGAGCTTA,-0.0942 E-score
4,ACAGCGTA,-0.055 E-score
5,CAACTCGG,-0.133 E-score
6,AGTGAGGG,-0.132 E-score
7,ACCCCCTC,0.0442 E-score
8,ATACTTGC,0.215 E-score
9,AGCGGGCA,-0.183 E-score
10,GCACCGTA,-0.00451 E-score
11,GGCAGGAC,-0.0555 E-score
12,CGGGAGCC,-0.209 E-score
13,ACATGGAT,0.229 E-score
14,AGACGAAG,-0.149 E-score
15,GACATTCC,-0.123 E-score
16,GGACCAGA,-0.217 E-score
17,TCACCAGA,0.00781 E-score
18,ACCCTTAA,0.00502 E-score
19,GTCCAACA,-0.0379 E-score
20,CCAGGCAC,0.00686 E-score
21,CAGTTCAC,-0.247 E-score
22,CAATGGGC,-0.208 E-score
23,GAGAGCTC,-0.00421 E-score
24,ATACGCCA,0.291 E-score
25,CACGTCCA,-0.123 E-score

row,Sequence,binding signal
1,TAATCGGA,0.111 E-score
2,CGTAAGCA,-0.17 E-score
3,CCGAGTTC,-0.136 E-score
4,CGAGAGCG,-0.172 E-score
5,GGTCTTAA,-0.0509 E-score
6,CGTAACAC,0.205 E-score
7,ACGGTCGC,-0.178 E-score
8,GATGACAC,0.344 E-score
9,CTTAACAC,0.151 E-score
10,AGACCAAA,-0.181 E-score
11,CTTTTTAC,-0.0867 E-score
12,ACGATTAC,-0.106 E-score
13,CTGCAGTC,-0.296 E-score
14,ATTCGTAG,0.0214 E-score
15,CAATATGA,0.187 E-score
16,TCTCCAGA,0.165 E-score
17,ATATGCGG,0.274 E-score
18,CATATATA,0.279 E-score
19,CCCATTAC,-0.0573 E-score
20,ATTTTCTC,-0.149 E-score
21,ACCCACCC,0.09 E-score
22,CCCCCAGA,-0.00513 E-score
23,CTCAGAAC,-0.18 E-score
24,CGCTAGTA,0.134 E-score
25,ACTTTTAA,-0.246 E-score

row,Sequence,binding signal
1,GGAGGGGA,0.163 E-score
2,ATTTCCAC,-0.18 E-score
3,ACGGTTCC,-0.191 E-score
4,GGGCCCTA,-0.107 E-score
5,ACCCTACA,0.109 E-score
6,CATCATCA,-0.0362 E-score
7,AAATCCGT,0.0925 E-score
8,ACGTCCCT,0.0552 E-score
9,ACTTGAGA,0.141 E-score
10,ACCATGCA,0.0958 E-score
11,AGCTCCGG,-0.00649 E-score
12,AATGAGAA,-0.022 E-score
13,ATCACAAG,0.164 E-score
14,ATGTTCCG,-0.191 E-score
15,GCATTATA,0.148 E-score
16,GACCCCTA,0.0617 E-score
17,AGAGTAAT,0.0611 E-score
18,TACTGACA,0.182 E-score
19,TCATCGGA,0.176 E-score
20,AGACCCGG,0.214 E-score
21,CAGCCCCA,0.0535 E-score
22,GCTTCGCC,-0.386 E-score
